Like-named read-outs stand apart in the source and are kept apart here.

Test [1] deals with T1, human MUC17 on NUGC4 endogenous tumor cells (human, UniProt Q685J3). The experiment in a line: FACS on NUGC4 cells, MFI. As to the method: (§1) Then a complete medium was added to stop the digestion, and the cells were blown into a single cell suspension. After counting, the cells were centrifuged, and the cell pellet was resuspended to 2×10⁶ cells/mL in an FACS buffer (PBS+2% fetal bovine serum), and added to a 96-well FACS reaction plate at 100 µL/well. The plate was centrifuged, and the supernatant was discarded. An antibody sample to be tested (diluted in a 3-fold gradient from a starting concentration of 100 nM) was added at 50 µL/well and uniformly mixed with the cells, and the mixture was incubated at 4° C. for 1 h. […] The results were tested and analyzed by FACS (FACS Canto™, purchased from BD) after the plate was centrifuged and washed 3 times with a PBS buffer and resuspended with 100 μL of PBS. Data analysis was performed by software (FlowJo) to obtain the mean fluorescence intensity (MFI) of the cells. Then, analysis was performed by software (GraphPad Prism8), data were fitted, and EC50 values were calculated. As shown in FIGS. 3A-3B, the recombinant antibodies Lab315-huFc, Lab316-huFc, Lab320-huFc, Lab331-huFc, and Lab332-huFc are all capable of binding specifically to NUGC-4 cells.

Test [2] deals with T1, human MUC17 on NUGC4 endogenous tumor …. Nature of the test: FACS on NUGC4 cells, MFI. As to the method: as §1
The preparation of the assay cells and the antibodies to be tested and the assay were performed with reference to Example 3.4. The humanized antibodies all have a relatively good binding activity with endogenous cells NUGC4, maintaining the binding ability of the corresponding recombinant antibodies before humanization.
This is another data set of the same source.

The target of test [3] is T2, Human MUC17 ECD4131-his (His-tagged human MUC17 protein extracellular domain fusion protein) (human, UniProt Q685J3 part only).
T2 construct: a truncation of the extracellular domain; also called human MUC17-his protein; human MUC17-His
Nature of the test: SPR (Biacore 8K), antibody captured on Protein A. As to the method: The strength of antibody-antigen binding was assayed with a BIAcore 8K instrument using an Protein A capture method. First, Protein A was immobilized onto a CM4 chip (purchased from GE, BR-1005-34) using an amino coupling method. According to the instruction of the Amine Coupling Kit (purchased from GE, BR100633), NHS and EDC were mixed with HBS-EP+ pH 7.4 as a mobile phase to activate the chip for about 600 s; the Protein A was diluted to 50 µg/mL with 10 mM sodium acetate (pH 4.5) and injected for 600 s, and finally, the remaining activated sites were blocked with ethanolamine. Then, the affinity of the antibody for the antigen was assayed using a multi-cycle kinetic method; in each cycle, first, the antibody to be tested was captured using the Protein A chip, and then a single concentration of antigen protein was injected. The association and dissociation processes of the antibody with the antigen protein were recorded, and finally, the chip was regenerated using Glycine pH 1.5, wherein the mobile phase was HBS-EP+ (10 mM HEPES, 150 mM NaCl, 3 mM EDTA, 0.05% surfactant P20), the flow rate was […], the regeneration time was 30 s, and the assay temperature was 25° C. Finally, according to a 1:1 binding model, the data were analyzed, and the antibody-antigen binding kinetics parameters, including the association rate constant Ka, the dissociation rate constant Kd, the equilibrium dissociation constant KD, and the maximum binding signal Rmax, were fitted. The association rate (Ka), dissociation rate (Kd), and binding affinity (KD) of the recombinant antibodies Lab315-huFc, Lab316-huFc, Lab320-huFc, Lab331-huFc, and Lab332-huFc with the human MUC17 protein are shown in Table 5.
Background: Surface plasmon resonance follows binding to a sensor surface in real time, without labels.

The target of test [4] is T2, Human MUC17 ECD4131-his (His-tagged …). Nature of the test: SPR (Biacore 8K), antibody captured on Protein A. The method in brief: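 Antibodies captured on a Protein A CM4 chip, then a single antigen concentration injected per cycle (multi-cycle kinetics) in HBS-EP+ at 25 °C, 30 L/min; Glycine pH 1.5 regeneration. Ka, Kd, KD and Rmax fitted to a 1:1 binding model.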
The source holds these as a separate data set.

The target is the same in test [5]. The experiment in a line: ELISA on coated human MUC17 ECD4131-his, OD450. As to the method:
(§2) A human MUC17-his protein was diluted with PBS to a final concentration of […] and then added to a 96-well ELISA plate at 50 µL/well. The plate was incubated at 4° C. overnight. The next day, the plate was washed 2 times with PBST, and a blocking buffer [PBS+2% (w/w) BSA] was added for blocking at room temperature for 2 h. The blocking buffer was discarded, and the recombinant antibody and positive and negative control antibody with a starting concentration of 100 nM serially diluted by 3 folds were added at 50 μL/well. After incubation at 37° C. for 1 h, the plate was washed 3 times with PBST. A horseradish peroxidase (HRP)-labeled secondary antibody (purchased from Merck, Cat. No. AP113P) was added for incubation at 37° C. for 1 h, and the plate was washed 5 times with PBST. A TMB substrate was added at 50 μL/well for incubation at room temperature for 10 min, and then a stop solution (1.0 M HCl) was added at 50 µL/well. The OD₄₅₀ nm values were read by an ELISA plate reader (Multimode Plate Reader, EnSight, purchased from Perkin Elmer).

The target in test [6] is T3, monkey MUC17 fragment on FlpinCHO-Cyno(3597-3964)-D2 cells (monkey).
T3 chain: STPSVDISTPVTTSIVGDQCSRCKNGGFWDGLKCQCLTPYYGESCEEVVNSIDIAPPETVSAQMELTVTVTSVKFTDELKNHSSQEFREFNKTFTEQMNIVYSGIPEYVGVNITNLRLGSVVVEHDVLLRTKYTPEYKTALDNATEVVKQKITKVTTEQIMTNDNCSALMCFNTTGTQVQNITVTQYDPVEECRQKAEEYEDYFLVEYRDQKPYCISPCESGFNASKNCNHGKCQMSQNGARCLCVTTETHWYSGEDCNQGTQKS
The experiment in a line: FACS on FlpinCHO-Cyno(3597-3964)-D2 cells, MFI.

Test [7] concerns the target T3, monkey MUC17 fragment on …. Nature of the test: FACS on FlpinCHO-Cyno(3597-3964)-D2 cells, MFI.
The target of test [8] is T2, Human MUC17 ECD4131-his (His-tagged …). Nature of the test: ELISA on coated human MUC17 ECD4131-his, OD450. The protocol:
as §2
The source holds these as a separate data set. (In an ELISA, binding on a coated surface is turned into a signal by an enzyme label.)

In test [9] the target is T4, Cyno MUC17 ECD3577-his (His-tagged cynomolgus monkey MUC17 protein extracellular domain fusion protein) (cynomolgus monkey).
T4 construct: also called monkey MUC17-his protein; monkey MUC17 ECD3577-His
T4 chain: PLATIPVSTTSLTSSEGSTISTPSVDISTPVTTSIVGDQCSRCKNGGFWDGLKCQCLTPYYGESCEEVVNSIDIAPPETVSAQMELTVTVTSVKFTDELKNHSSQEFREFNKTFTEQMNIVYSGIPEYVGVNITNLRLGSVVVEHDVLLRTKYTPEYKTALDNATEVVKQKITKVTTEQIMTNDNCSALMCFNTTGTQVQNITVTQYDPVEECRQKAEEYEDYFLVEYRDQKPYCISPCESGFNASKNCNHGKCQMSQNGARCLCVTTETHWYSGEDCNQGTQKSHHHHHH
The experiment in a line: ELISA on coated monkey MUC17 ECD3577-His, OD450. The protocol:
as §2
The monkey MUC17-his protein was subjected to ELISA and data analysis according to the method described in Example 3.2. The recombinant antibodies Lab315-huFc, Lab316-huFc, Lab320-huFc, Lab331-huFc, and Lab332-huFc have a relatively good binding activity with the monkey MUC17-his protein.

For test [10], the target named is T4, Cyno MUC17 ECD3577-his (His-tagged …). The experiment in a line: ELISA on coated monkey MUC17 ECD3577-His, OD450. As to the method:
To assay the binding activity of the humanized antibodies with the monkey MUC17-his protein, the monkey MUC17-his protein was diluted with PBS to a final concentration of […] and subjected to ELISA assay and data analysis according to the method described in Example 3.3. The humanized antibodies SCR-7724, SCR-7782, SCR-7783, SCR-7784, and SCR-7785 have cross-binding activity with the monkey MUC17 protein, maintaining the binding ability of the recombinant antibody.

B1: Lab315-huFc (Fc fusion)
chain: DVQLQASGGGAVQAGGSLRLSCAASGDITRRCMGWFRQAPGKEREGVAGISEDGITIYADSVKGRFTISKDNAKNSLYLQMNSLAPEDTANYSCAASILNRVGCRQLSYEYIYRGQGTQVTVSS[omitted - human IgG1 Fc with C220S (EU numbers)]
notes: Nanobody expressed in human Fc fusion form
B1: the “EC50 (read off the curve)” value is ~200 pM in test [1]; ~100 pM in test [2]; ~40 pM in test [5]; ~2000 pM in [6]; ~2000 pM in test [7]. For the same molecule, the Kd in test [3] was 383 pM; in test [4], 123 pM. Also, the off-rate (koff) in test [3] worked out at 6.47e-05 s⁻¹; in [4], 2.9e-05 s⁻¹. The figures for the kon in [3] and in test [4] were 169000 M⁻¹ s⁻¹ and 237000 M⁻¹ s⁻¹, respectively.

B2: Lab331-huFc (Fc fusion)
chain: DVQLQASGGGSVQAGGSLRLSCAASGYTSNRYSMAWFRQAPGKEREVVAFIWTDGGRTYYADSVKGRLTISHDNAKNTLYLQMDSLKPEDTAMYYCAASSLLLQTINPRAWPYWGQGTQVTVSS[omitted - human IgG1 Fc with C220S (EU numbers)]
notes: as for B1
B2: the Kd in [3] is 95.8 pM; in test [4], 88 pM. The figures for the koff in test [3] and in test [4] were 7.67e-05 s⁻¹ and 6.39e-05 s⁻¹, respectively. Besides, the association rate constant (kon) was found to be 800000 M⁻¹ s⁻¹ in test [3] and 726000 M⁻¹ s⁻¹ in test [4]. Further, the “EC50 (read off the curve)” value in test [5] was ~80 pM; in [8] it was ~80 pM; in test [9] it was ~50 pM; in test [10] it was ~50 pM.

As a reminder, the EC50 (read off the curve) is the midpoint of the concentration-response curve. The term Kd denotes the constant that tells how readily two partners part at equilibrium. A word on the koff: it is the rate constant with which the complex falls apart. The kon is a measure of how fast the partners come together.

The values are drawn from US20250297030A1 (SHANDONG SIMCERE BIOPHARMACEUTICAL, published 2025).
